According to the antibiotic and cytotoxicity screens of Wong et al. (2023):
The other results are listed elsewhere or left out.

Tests used:
HSkMC = human skeletal muscle cells; experiment: cytotoxicity call (relative viability < 0.9); details: 10 µM
HepG2 = experiment: cytotoxicity call (relative viability < 0.9); details: 10 µM
S. aureus RN4220 = experiment: growth inhibition call (relative growth <= 0.2); details: 50 µM

For COc1ccc(S(=O)(=O)Nc2ccc3c(c2)C(=O)N([C@H](C)CO)C[C@H](C)[C@@H](CN(C)Cc2ccncc2)O3)cc1, the cytotoxicity call (HSkMC) was “inactive”, the cytotoxicity call (HepG2) was “inactive” and the growth inhibition call (S. aureus RN4220) was “inactive”.

C[C@@H]1CN([C@@H](C)CO)C(=O)Cc2cc(NS(=O)(=O)c3cn(C)cn3)ccc2O[C@H]1CN(C)S(=O)(=O)c1cccs1 was tested, and the cytotoxicity call (HSkMC) was “inactive”, the cytotoxicity call (HepG2) was “inactive” and the growth inhibition call (S. aureus RN4220) was “inactive”.

With C[C@@H]1CN([C@@H](C)CO)C(=O)c2cc(NC(=O)c3ccccc3)ccc2O[C@@H](C)CCCCO[C@H]1CN(C)C(=O)Nc1ccccc1 the cytotoxicity call (HSkMC) was “inactive”, the cytotoxicity call (HepG2) was “inactive” and the growth inhibition call (S. aureus RN4220) was “inactive”.

Cc1ccc(S(=O)(=O)Nc2ccc3c(c2)C(=O)N([C@H](C)CO)C[C@@H](C)[C@@H](CN(C)C(=O)CCC(F)(F)F)OCCCC[C@@H](C)O3)cc1 was tested, and the cytotoxicity call (HSkMC) was “inactive”, the cytotoxicity call (HepG2) was “inactive” and the growth inhibition call (S. aureus RN4220) was “inactive”.

In the case of COc1cc(CN2CCC(C(=O)N[C@@H](c3ccc(-c4ccccc4)cc3)c3cnccn3)CC2)cc(OC)c1, the cytotoxicity call (HSkMC) is reported as “inactive”, the cytotoxicity call (HepG2) is reported as “active” and the growth inhibition call (S. aureus RN4220) is reported as “inactive”.

Nc1nc(C(=CCC(=O)O)C(=O)NC2C(=O)N3C(C(=O)O)=CCSC23)cs1 (stereo not given) was tested, and the cytotoxicity call (HSkMC) was “inactive”, the cytotoxicity call (HepG2) was “inactive” and the growth inhibition call (S. aureus RN4220) was “active”.

In the case of O=C(CN1CCOCC1)N[C@H]1CC[C@@H](CCNC(=O)C2CCC2)O[C@H]1CO, the cytotoxicity call (HSkMC) is reported as “inactive”, the cytotoxicity call (HepG2) is reported as “inactive” and the growth inhibition call (S. aureus RN4220) is reported as “inactive”.

For Cc1noc(C)c1NC(=O)Nc1ccc2c(c1)C(=O)N([C@@H](C)CO)C[C@@H](C)[C@H](CN(C)C(=O)Nc1c(C)noc1C)OCCCC[C@H](C)O2, the cytotoxicity call (HSkMC) was “inactive”, the cytotoxicity call (HepG2) was “inactive” and the growth inhibition call (S. aureus RN4220) was “inactive”.

With C[C@H]1CN([C@@H](C)CO)C(=O)c2c(c3ccccc3n2C)-c2ccccc2CO[C@@H]1CN(C)S(=O)(=O)c1ccc(C(F)(F)F)cc1 the cytotoxicity call (HSkMC) was “inactive”, the cytotoxicity call (HepG2) was “inactive” and the growth inhibition call (S. aureus RN4220) was “inactive”.

With CC(C)NC(=O)Nc1ccc2c(c1)C(=O)N([C@H](C)CO)C[C@@H](C)[C@@H](CN(C)S(=O)(=O)c1ccccc1)O2 the cytotoxicity call (HSkMC) was “inactive”, the cytotoxicity call (HepG2) was “inactive” and the growth inhibition call (S. aureus RN4220) was “inactive”.
